Results reported in PubChem BioAssay AID1466 (National Center for Advancing Translational Sciences (NCATS), 2008).
The campaign covered roughly 200,000 compounds. About 10 (0.005%) were called active. Inconclusive results, whose numbers are uncertain, are shown with a selection of clear calls. Calls come from the whole dose curve; as a rule, active = well fitted inhibition curve with a large enough effect; inconclusive = small, poorly fitted or top-dose-only effect, or effect the other way, or another doubt; inactive = no such curve, though single readings can be large or run the other way. No potency is given beside an inconclusive call; the fits are too rough.

Target: Lysosomal alpha-glucosidase (Homo sapiens) (UniProt P10253)
Test: qHTS Assay for Inhibitors of Human alpha-Glucosidase as a Potential Chaperone Treatment of Pompe Disease;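 for activity change, negative = inhibition: plate controls were uninhibited enzyme wells for no effect and no-enzyme background for full effect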
Settings: purified human GAA, 4-MU-alpha-glucoside fluorescence; activity change, negative = inhibition: at 76.9 µM (top of the series) unless noted
Method in brief: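 qHTS format, compound range up to 77 uM. Human lysosomal enzyme at 4 nM, 400 uM 4-MU glucoside substrate, pH 5.0, 20 min room temperature; fluorescence after alkaline stop gives activity normalized to controls.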
Potency is the fitted concentration of half-maximal effect; tags give direction and shape of the fitted curve.

**Q.** Which Potency does the source give for `CN(C(=O)c1cc2ccccc2oc1=O)C1(C)CCS(=O)(=O)C1` (stereo not given) here?
**A.** inconclusive [inhibitor, single point]

**Q.** With `COc1ccc(/C=N/N2CCN(C)CC2)cc1O` as the compound, how does the Potency read?
**A.** inconclusive [inhibitor, single point]

**Q.** Which Potency does the source give for `Cc1ccc(/C=N/NC(=O)c2cccs2)s1` here?
**A.** inconclusive [inhibitor, partial curve]

**Q.** `O=C(Nc1cc(Cl)cc(Cl)c1)C1CCC(=O)N1Cc1ccccc1Cl` (stereo not given) was tested. Which Potency did it give?
**A.** inconclusive [inhibitor, full curve]

**Q.** With `Cc1nn(C)c(Oc2ccccc2)c1CCNS(=O)(=O)c1ccccc1` as the compound, how does the Potency read?
**A.** inconclusive [inhibitor, single point]

**Q.** `COc1cc(NS(=O)(=O)c2ccc(NC(=O)c3ccc(S(=O)(=O)N4CCCCC4)cc3)cc2)ncn1` was tested. Which Potency did it give?
**A.** inconclusive [inhibitor, single point]

**Q.** How did the Potency turn out when `N#Cc1ccccc1S(=O)(=O)N1CCN(c2ccc(S(=O)(=O)N3CCOCC3)cn2)CC1` was run?
**A.** inconclusive [inhibitor, partial curve, poor fit]

**Q.** With `O=C(N/N=C/c1cccc2ccccc12)c1n[nH]c2c1CCCC2` as the compound, how does the Potency read?
**A.** inconclusive [activator, single point]

**Q.** Which Potency does the source give for `CCc1nc(NCCc2ccccn2)c2nnn(Cc3ccccc3F)c2n1` here?
**A.** inactive

**Q.** `COc1cccc(C(=O)Nc2ccc(C(F)(F)F)n(C)c2=O)c1` was tested. Which Potency did it give?
**A.** inconclusive [inhibitor, single point]

**Q.** `CCC(=O)N1CCc2cc(S(=O)(=O)CCC(=O)N3CCc4ccccc4C3)ccc21` was tested. Which Potency did it give?
**A.** inactive

**Q.** `COc1ccccc1N1CCN(C(=O)CN(C)S(=O)(=O)c2cc(C)ccc2OC)CC1` was tested. Which activity change, negative = inhibition did it give?
**A.** inconclusive: 14.9% [activator]

**Q.** With `OCCNc1cnc2ccccc2n1` as the compound, how does the Potency read?
**A.** inconclusive [activator, partial curve, poor fit]

**Q.** With `Cc1nc(/C=C\C(=O)O)c2cc(C)oc2n1` as the compound, how does the Potency read?
**A.** inconclusive [activator, single point]

**Q.** How did the Potency turn out when `NC12CCc3c(no[n+]3[O-])C1(O)CC(c1ccccc1)=[N+]2[O-]` (stereo not given) was run?
**A.** inactive

**Q.** How did the Potency turn out when `CC(=O)N1CCC2(CC1)CC(=O)c1cc(OCC(=O)N3CCCC3)ccc1O2` was run?
**A.** inconclusive [activator, partial curve]

**Q.** Which Potency does the source give for `CCC(O)CNc1nc(SC)nc2sc3c(c12)CCN(C)C3` (stereo not given) here?
**A.** inconclusive [activator, partial curve]

**Q.** How did the activity change, negative = inhibition turn out when `COc1ccc(OCCn2c(=O)sc3ccccc32)cc1` was run?
**A.** inconclusive: 15.3% [activator]

**Q.** `C/C(CCc1ccccc1)=N/NC(=O)C(=O)NCc1ccccc1` was tested. Which activity change, negative = inhibition did it give?
**A.** inconclusive: 14.9% [activator]

**Q.** How did the Potency turn out when `O=C1CS/C(=C\[N+](=O)[O-])N1c1ccccc1` was run?
**A.** inconclusive [inhibitor, single point]

**Q.** Which Potency does the source give for `COC(=O)c1cc(NS(=O)(=O)c2ccc(N3CCOCC3)c([N+](=O)[O-])c2)cc(C(=O)OC)c1` here?
**A.** inconclusive [inhibitor, single point]

**Q.** Which activity change, negative = inhibition does the source give for `COC(=O)CC1C(=O)NCCN1C(=S)Nc1ccccc1Cl` (stereo not given) here?
**A.** inconclusive: 19.2% [activator]

**Q.** For `CCOc1ccccc1N1CCN(S(=O)(=O)c2ccc(F)c(F)c2)CC1`, which Potency is on record?
**A.** inconclusive [inhibitor, partial curve, poor fit]

**Q.** Which Potency does the source give for `CC(C)C1N=C2c3ccccc3N=C(SCC#N)N2C1=O` (stereo not given) here?
**A.** inconclusive [activator, single point]

**Q.** For `N#Cc1c(C(F)(F)F)cc(-c2cccs2)nc1SCc1cccnc1`, which Potency is on record?
**A.** inconclusive [activator, partial curve]

**Q.** Which Potency does the source give for `COc1ccc(C2Nc3ccccc3C(=O)N2Cc2ccccc2)cc1COc1ccccn1` (stereo not given) here?
**A.** inconclusive [activator, single point]

**Q.** Which Potency does the source give for `COC(=O)c1ccc(-c2ncc(-c3cccc4ccccc34)o2)cc1` here?
**A.** inconclusive [activator, partial curve]

**Q.** How did the Potency turn out when `COc1ccc(-c2nc(CS(=O)CC(=O)NCCC3=CCCCC3)c(C)o2)cc1` (stereo not given) was run?
**A.** inconclusive [inhibitor, full curve, poor fit]

**Q.** Which Potency does the source give for `Cc1noc(C)c1C(=O)NCc1ccccc1` here?
**A.** inconclusive [inhibitor, full curve, poor fit]

**Q.** Which Potency does the source give for `Cc1cc(Cl)n2c(nc3ccccc32)c1C#N` here?
**A.** inconclusive [activator, single point]

**Q.** `O=C(Nc1ccc(Cl)c(Cl)c1)Nc1ccccc1C(=O)O` was tested. Which activity change, negative = inhibition did it give?
**A.** inconclusive: 14% [activator]

**Q.** With `CCC(CC)c1nnc(NC(=O)c2ccco2)s1` as the compound, how does the activity change, negative = inhibition read?
**A.** inconclusive: 7.73% [activator]

**Q.** With `COC(=O)c1cnn2c(C(F)(F)F)cc(-c3ccco3)nc12` as the compound, how does the Potency read?
**A.** inconclusive [activator, single point]

**Q.** How did the Potency turn out when `Nc1ccc(C(=O)OCC(=O)N2CCc3ccccc3C2)cc1[N+](=O)[O-]` was run?
**A.** inconclusive [activator, single point]

**Q.** Which Potency does the source give for `COc1ccc(C2=NN(c3ccccc3)C(c3cn(CCC(=O)O)nc3-c3ccccc3)C2)cc1` (stereo not given) here?
**A.** inconclusive [activator, partial curve]

**Q.** How did the Potency turn out when `N#Cc1cc(N)c(Nc2ccccc2)cc1C#N` was run?
**A.** inconclusive [inhibitor, single point]

**Q.** For `NC1=NC(c2ccccc2)N=C(Nc2ccccc2)N1` (stereo not given), which Potency is on record?
**A.** inconclusive [inhibitor, partial curve]

**Q.** With `Cc1nnc(NC(=O)/C=C/c2ccco2)s1` as the compound, how does the Potency read?
**A.** inconclusive [inhibitor, single point]

**Q.** How did the activity change, negative = inhibition turn out when `O=c1[nH]c(NCCO)nc2c1C1(CCCCC1)Cc1ccccc1-2` was run?
**A.** inconclusive: -16.1% [inhibitor]

**Q.** For `Cc1ccc(-c2csc(NC(=O)c3cccc(N4C(=O)CCC4=O)c3)n2)o1`, which Potency is on record?
**A.** inconclusive [inhibitor, partial curve, poor fit]

**Q.** `CCOc1nc(NCCN2CCOCC2)nc(Nc2ccc([N+](=O)[O-])cc2)n1` was tested. Which Potency did it give?
**A.** inconclusive [inhibitor, single point]

**Q.** `Cn1ccnc1-c1nc2ccccc2[nH]c1=O` was tested. Which activity change, negative = inhibition did it give?
**A.** inconclusive: 51.8% [activator]

**Q.** Which Potency does the source give for `CCN1C(=O)/C(=C2/Sc3ccccc3N2CC)S/C1=N\c1ncn[nH]1` here?
**A.** inconclusive [activator, partial curve]

**Q.** With `COc1cc(/C=C2\SC(=S)NC2=O)ccc1OS(=O)(=O)c1ccccc1` as the compound, how does the Potency read?
**A.** inconclusive [inhibitor, partial curve]

**Q.** How did the Potency turn out when `c1ccc(Cn2ncc3c(N4CCOCC4)ncnc32)cc1` was run?
**A.** inconclusive [inhibitor, single point]

**Q.** With `CCCC(=O)Nc1nc(-c2ccc3c(c2)OCCO3)cs1` as the compound, how does the Potency read?
**A.** inconclusive [inhibitor, partial curve, poor fit]

**Q.** How did the activity change, negative = inhibition turn out when `C=CCNC(=O)/C(=C/c1cccc([N+](=O)[O-])c1)NC(=O)c1ccco1` was run?
**A.** inconclusive: 12.2% [activator]

**Q.** Which Potency does the source give for `CN(C(=O)CSc1nnc(NC2CCCCC2)s1)C1CCS(=O)(=O)C1` (stereo not given) here?
**A.** inconclusive [inhibitor, single point]

**Q.** How did the Potency turn out when `O=C(O)c1cc(-c2ccccc2)nc2nc(N3CCCCC3)sc12` was run?
**A.** inconclusive [activator, partial curve]

**Q.** With `COCc1ccc(CN2CCc3c([nH]c4ccccc34)C2C(C)(C)C)o1` (stereo not given) as the compound, how does the Potency read?
**A.** inconclusive [activator, full curve, poor fit]

**Q.** `CC(C)(C)c1ccc(-c2nnc(SCC(=O)Nc3sc4c(c3C#N)CCCC4)o2)cc1` was tested. Which Potency did it give?
**A.** inconclusive [inhibitor, single point]

**Q.** For `CCN(CC)C(=S)SC1=CCS(=O)(=O)C1`, which Potency is on record?
**A.** inconclusive [inhibitor, single point]

**Q.** `CC(NS(C)(=O)=O)C(c1cccs1)N1CCN(C)CC1` (stereo not given) was tested. Which Potency did it give?
**A.** inconclusive [inhibitor, full curve]

**Q.** Which activity change, negative = inhibition does the source give for `COc1ccc(C2Nc3ccccc3C(=O)N2c2ccccc2)cc1CN1CCOCC1` (stereo not given) here?
**A.** inconclusive: 24.1% [activator]

**Q.** How did the Potency turn out when `C=CCc1c(C)nc2c(C(=O)O)cnn2c1C` was run?
**A.** inconclusive [inhibitor, single point]

**Q.** `CN(Cc1nc(Cc2ccccc2F)no1)Cc1cccc2ncccc12` was tested. Which Potency did it give?
**A.** inconclusive [inhibitor, single point]

**Q.** Which Potency does the source give for `Cc1ccc(S(=O)(=O)N(NC2=NS(=O)(=O)c3ccccc32)C(=O)c2ccccc2)cc1` here?
**A.** inconclusive [inhibitor, single point]

**Q.** For `Cc1cccc(/C(N)=N/OC(=O)Cc2cccs2)c1`, which Potency is on record?
**A.** inconclusive [inhibitor, partial curve]

**Q.** `COc1ccc(C)cc1NCc1cccc(OC)c1OC` was tested. Which Potency did it give?
**A.** inconclusive [inhibitor, partial curve, poor fit]

**Q.** `COC(=O)c1sccc1NC(=O)CSc1ccccc1NS(=O)(=O)c1ccccc1Cl` was tested. Which Potency did it give?
**A.** inconclusive [inhibitor, single point]

**Q.** For `CCOC(=O)c1c(NC(NC(C)=O)C(Cl)(Cl)Cl)sc(C(C)=O)c1C` (stereo not given), which Potency is on record?
**A.** inconclusive [inhibitor, single point]

**Q.** `O=C(CN1CCN(c2ccccn2)CC1)N1c2ccccc2CCc2ccccc21` was tested. Which Potency did it give?
**A.** inconclusive [inhibitor, single point]

**Q.** With `CCC1(C)Cc2c(sc3nc(SC)nc(N)c23)CO1` (stereo not given) as the compound, how does the Potency read?
**A.** inconclusive [inhibitor, single point]

**Q.** For `Cc1oc(C(C)(C)C)cc1C(=O)Nc1cccc(/C=C\C(=O)O)c1`, which activity change, negative = inhibition is on record?
**A.** inconclusive: -17.1% [inhibitor]

**Q.** For `CCN(CC)/C(N)=N/c1nc(C)cc(C)n1`, which activity change, negative = inhibition is on record?
**A.** inconclusive: 19.1% [activator]
